# According to the supplement of paper PMC3334620:
# The full ranking holds about 33,000 sequences; the median of “E-score (-0.5 to 0.5)” is about -0.053, and the highest 2% start at about 0.37. This is one part of the list.
# Molecular target: Hap1 (UniProt P0CE41)
# Experiment: PBM E-score (8-mer binding enrichment) (E-score (-0.5 to 0.5)); higher = stronger / more preferred TF binding; most listed sequences are background and not binding sites
# Conditions: protein concentration: 200 nM; construct: GST-DNA-binding domain
# How it was run: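 Masliner-normalised scans of fluorescent anti-GST signal were the basis for scoring. That signal came from GST-tagged yeast transcription factors applied at about 100-200 nM to double-stranded universal all-10-mer Agilent arrays on fresh or once-stripped slides. Each ungapped eight-base word, pooled with its reverse complement, received an E-score from the Universal PBM Analysis Suite.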
# Chain of UniProt P0CE41 (P0CE41 whole entry): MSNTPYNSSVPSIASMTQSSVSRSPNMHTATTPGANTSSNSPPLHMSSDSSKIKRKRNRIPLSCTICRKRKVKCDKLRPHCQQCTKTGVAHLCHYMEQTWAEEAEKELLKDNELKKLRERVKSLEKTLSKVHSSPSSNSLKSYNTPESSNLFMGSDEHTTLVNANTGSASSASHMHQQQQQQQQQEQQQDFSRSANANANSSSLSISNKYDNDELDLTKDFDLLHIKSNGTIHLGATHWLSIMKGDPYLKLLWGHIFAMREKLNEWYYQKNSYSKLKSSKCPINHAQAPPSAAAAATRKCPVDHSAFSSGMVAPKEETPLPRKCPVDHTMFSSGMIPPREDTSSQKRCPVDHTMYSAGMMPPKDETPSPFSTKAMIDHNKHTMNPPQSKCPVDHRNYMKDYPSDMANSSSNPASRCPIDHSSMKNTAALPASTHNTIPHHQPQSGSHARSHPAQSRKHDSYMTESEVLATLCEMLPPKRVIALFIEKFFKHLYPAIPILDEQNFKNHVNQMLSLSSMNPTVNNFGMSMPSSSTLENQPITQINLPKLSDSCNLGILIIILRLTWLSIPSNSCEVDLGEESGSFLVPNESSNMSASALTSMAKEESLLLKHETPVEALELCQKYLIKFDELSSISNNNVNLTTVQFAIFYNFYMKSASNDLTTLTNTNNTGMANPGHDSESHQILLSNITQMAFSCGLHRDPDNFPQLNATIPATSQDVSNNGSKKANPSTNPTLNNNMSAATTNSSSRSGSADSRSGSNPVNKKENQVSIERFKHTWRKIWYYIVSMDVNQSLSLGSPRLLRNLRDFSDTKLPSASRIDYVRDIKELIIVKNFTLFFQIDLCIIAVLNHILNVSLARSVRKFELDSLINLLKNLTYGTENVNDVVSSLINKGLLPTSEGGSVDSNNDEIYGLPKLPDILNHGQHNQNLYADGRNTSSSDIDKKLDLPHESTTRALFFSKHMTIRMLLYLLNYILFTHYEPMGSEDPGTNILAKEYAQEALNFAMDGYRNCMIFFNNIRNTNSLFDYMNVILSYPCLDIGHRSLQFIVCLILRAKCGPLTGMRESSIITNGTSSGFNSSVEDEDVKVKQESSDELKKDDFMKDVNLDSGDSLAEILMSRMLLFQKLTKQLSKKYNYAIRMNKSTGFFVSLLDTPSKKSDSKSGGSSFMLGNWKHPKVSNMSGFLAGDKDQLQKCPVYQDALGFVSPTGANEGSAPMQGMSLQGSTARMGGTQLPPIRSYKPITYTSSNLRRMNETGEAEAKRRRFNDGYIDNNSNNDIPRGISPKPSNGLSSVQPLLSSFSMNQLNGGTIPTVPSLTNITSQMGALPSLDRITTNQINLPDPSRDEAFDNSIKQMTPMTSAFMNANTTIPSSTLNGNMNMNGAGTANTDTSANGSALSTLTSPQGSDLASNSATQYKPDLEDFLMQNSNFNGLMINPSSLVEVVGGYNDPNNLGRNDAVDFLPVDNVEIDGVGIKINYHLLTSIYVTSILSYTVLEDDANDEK
row,Sequence,PBM E-score
1,CGCTTGAA,0.184
2,ATCAGAGG,-0.147
3,ATTAATGA,0.00222
4,ACGTGAGG,0.0362
5,AAACAATC,-0.152
6,ACCAGTCG,0.0172
7,AATTTACG,0.253
8,AAGTCGGC,0.192
9,CAGAGAAA,-0.203
10,ATCGTGTC,0.224
11,AGGCGAAT,-0.0348
12,GGTACGAA,-0.0434
13,GCTCACAC,-0.206
14,GAGATGCA,-0.157
15,ATGCTGGG,-0.113
16,ACTCTAGA,-0.191
17,ATCTTGGA,-0.14
18,GCGGCCGC,0.289
19,ACGAAGTC,-0.183
20,ACACTCAT,-0.164
21,CCCTAATC,0.077
22,ACGAAAGG,-0.0717
23,CATGCCCA,-0.269
24,ATAAACGA,0.0388

row,Sequence,PBM E-score
1,CAACGACG,-0.0858
2,AGCGTGTG,-0.0952
3,CTGAATCA,-0.308
4,GCATGGAC,0.104
5,CAGACCGG,0.278
6,CGAGACAC,0.00054
7,GTTGTTTA,-0.146
8,AGGCCAAC,-0.0286
9,AGAGGCCG,-0.0391
10,ATATAAAA,0.0781
11,CCGGCACA,0.262
12,ACTTATCT,-0.135
13,ACGGTTTA,-0.0729
14,ATTGATGC,-0.0271
15,GCATAACA,-0.266
16,CGATCGAG,0.172
17,CACGAGAA,-0.19
18,GCGGTTAA,0.143
19,GACCTAGC,-0.0274
20,CTCGTGAA,-0.261
21,CCATCGGA,0.342
22,GCTTTTAC,0.14
23,GTGAACGA,-0.202
24,AACGTAAA,-0.0453

row,Sequence,PBM E-score
1,ATGATGTG,-0.149
2,ATAGGTCC,0.188
3,AGATTTTC,-0.0985
4,CGTCAGAC,-0.032
5,CGTCCGAA,0.394
6,GTCTTTTA,-0.127
7,AACGGCGC,0.0607
8,CACGGCAG,-0.062
9,ACGCGTCT,-0.171
10,GACGTCAA,-0.252
11,GCAAGTGC,-0.283
12,AACCCTAA,0.0217
13,ATAGAAGG,-0.0396
14,AGCCCCTG,-0.269
15,AGTGCCCG,0.195
16,CTGCGCTC,-0.211
17,AAAGCCGT,0.322
18,CTGAATGA,-0.058
19,GCACGGGC,0.0511
20,ATCTTTTA,-0.068
21,AACCGTTG,-0.012
22,CGTGGACA,0.0235
23,ACGGTCGA,0.167
24,CGCATGCG,-0.0985

row,Sequence,PBM E-score
1,ACAGGGCC,0.115
2,CTACAGCC,-0.0654
3,CTAGGAAC,-0.184
4,AAAACTGC,-0.181
5,GGCCGAAA,0.405
6,CTCCTTGC,-0.281
7,AACGAAGA,-0.13
8,CCTATGGC,-0.0292
9,AAACGGTC,0.114
10,AGAATGGG,-0.113
11,GCCGCGCA,0.0598
12,ACTCAGGA,-0.123
13,AAGATCGG,0.304
14,GCGGTAAC,0.256
15,AAAACGTG,-0.174
16,GGAAAAGA,-0.0335
17,ATTACGGA,0.356
18,AGGATCTA,-0.253
19,GGCCGCAC,0.181
20,GATGTAAA,0.051
21,TCGTAACA,-0.0597
22,AATCCCGT,0.372
